From the RNAGym collection of RNA variant scans (doi:10.7554/elife.90254)
Read counts are not given, so values of variants with three or more changes are uncertain.

B1: LINE1-mini (parent)
chain: GGCAGAGCUCAACACAGCGUGGCAAAGUGGCUGUGGCUAGACUGCC

Variants of: B1
Test: self-cleavage, relative activity (ratio to wild type); higher = more cleavage; in vitro, sequencing; the parent is a self-cleaving ribozyme

Row | Variant | self-cleavage
1 | A4U A11U G21C G29U | 0
2 | G5C U20A G21U | 0.03
3 | C3U C8A U20G | 0.16
4 | C8G C13G G35U | 0.12
5 | G5A G7A G29A | 0.22
6 | G7U C18U U28A U32C | 0.02
7 | C10G A11U U32C G33A G35C C37G | 0
8 | A11C C23U G36C | 0.01
9 | A4U C13G G35C | 0.06
10 | G5C C10U A11U G21A A26C C45A | 0.03
11 | A4U C31U A39U | 0.02
12 | C3A G5C C45U | 0.06
13 | C3U C15A G35A U38C | 0.01
14 | C8U A39U U43A | 0.01
15 | G1C C3U G5C C10A C15A A39C | 0.02
16 | A4U G22C G27A C46A | 0.14
17 | G5C C8U C23G C42A | 0.01
18 | A4G C8A G21C | 0.14
19 | G5C G21U G27A | 0.07
20 | A6U U9C G33A | 0.09
21 | G1A G21C U28G U34A | 1.2
22 | G1U G40U C45U | 0.1
23 | U9A U20C C23U G36U | 0.03
24 | G1C G2U C10A | 0.02

Row | Variant | self-cleavage
25 | C8U C13A C31U G44A | 0.03
26 | A12G C15A A25C G36C A41U | 0.04
27 | C3U A12C C23U | 0.03
28 | C13G G35U C37G | 0.03
29 | A4U A25C U43C | 0.03
30 | C8U G27C G29U G44U | 0.1
31 | C18A G27C C31U C45U | 0.05
32 | G7C U9G A11C G30A | 0.01
33 | A6C G21A U38A | 0.64
34 | G7C A11U G30U C46U | 0.04
35 | U9G G33C U34A C37U A39C | 0.07
36 | C13U G29C G33U | 0.08
37 | G5U G17U U28C | 0.06
38 | C8G A16G U28A | 0.06
39 | U20C C31A U32G | 0.02
40 | G1U G7U A24U | 0.01
41 | G5A A25G U28C | 0.47
42 | A12C C15G G40A | 0.01
43 | G5U C8A A16U U38G | 0.08
44 | C3U G27A C42G | 0.02
45 | G5U A6U G7U U9A | 0.11
46 | A14C G35C G36A | 0.03
47 | C13G G22U G30A | 0.11
48 | A12C U32A A39U | 0.06

Row | Variant | self-cleavage
49 | U9A A11U A25G | 0
50 | A14U G17U G19U C23A G33U C46G | 0.02
51 | C10A A11U G22A U34G C42G | 0.01
52 | G2U A12G G35A A41U | 0.08
53 | A6C C10A A11G A12G G30C C37A | 0
54 | A6U G35C G40C | 0.04
55 | C13U G19U U28A | 0.05
56 | C18A U34G C42U | 0.09
57 | G5C A11U G21C A24U G36A | 0.01
58 | A14U U20A G40C A41G | 0.01
59 | G5U A14G A25C | 0.05
60 | G17C G29C G35C C42U | 0.01
61 | G7C G19U C23U G29A C46U | 0.12
62 | G2A G30U G35A C46A | 0.16
63 | G17U G36C U38C C46G | 0
64 | G2U C13U A26C U32C U34C | 0.06
65 | U9A A24C U38C | 0.15
66 | A24U C31U C46A | 0.24
67 | C18G G29U A39G | 0.14
68 | A11U G21A G30A G44U | 0.05
69 | G17C G30U U38G | 0.08
70 | G2C A14G G44U | 0.02
71 | G17A A26G G33A | 0.01
72 | G1A G7U C13A | 1.23

Row | Variant | self-cleavage
73 | C13A A14C G35A C42A | 0
74 | A4G A25C G44C | 0
75 | G2A U9A G21U A39C C42U | 0.19
76 | C3G C10U A11C G27A U32C | 0.04
77 | C3A C8U C10G C18A U20A G35A | 0.02
78 | C8U C23A A41U G44A | 0.52
79 | A16G G22U G29U | 0.04
80 | A12G G30U G33U C37U | 0.46
81 | U9A G30A C46G | 0.06
82 | G1C G7A A11G G36A G40A | 0.01
83 | A4C U34A G35A | 0.04
84 | U9A G29C G44A | 0.13
85 | G7A A26U G40A | 0.15
86 | A14C A16G G27A U34G | 1.92
87 | G5U C42G C46U | 0.02
88 | A11U C23A U38C C42U C46A | 0.01
89 | A4G A11U G17U A26G C31A | 0.01
90 | A16G G21A G44U | 0.05
91 | A12G C23U C45G C46A | 0.04
92 | G1U C3G U43C | 0.16
93 | U9G A12C G29A C31U | 0.01
94 | C18U G21U A39C | 0.12
95 | G5C A12C G29U | 0.05
96 | A12C A16C A25G | 0.03

Row | Variant | self-cleavage
97 | G21U U28C C37A | 0.01
98 | C8U U28G A39C | 0.05
99 | A11C C23U A25U C37U C42G C45U C46U | 0.01
100 | U9C G40A U43C | 0.01
101 | C10U G27A C46G | 0.06
102 | A6G G17C G21U G35C G44C | 0.02
103 | A6G C37G C46A | 0.01
104 | A4U G5A A12G A24C | 0.02
105 | A12G C13G U28A | 0.01
106 | G1U G35A A39C | 0.06
107 | U9G G40A G44A | 0.12
108 | C3A G7U G27U | 0.33
109 | A11G G35U U38G | 0.01
110 | C3A G5C C10G | 0.04
111 | C3G A25G C42A | 0.14
112 | U9G G27C G44A | 0.09
113 | G1A C3U G40A A41U | 0.1
114 | A4G G17A G44C | 0.06
115 | G1C C3A G5C A11G G33A | 0.04
116 | A4C A25G G36C C37U | 0.03
117 | A24C C42G G44C | 0.1
118 | C3G C31A G35U | 0.24
119 | G17C G19U A24U | 0.02
120 | C3U C15U A16U U32G | 0.09

Row | Variant | self-cleavage
121 | G2C A12G U20A | 0.02
122 | G5U C15U A26G U38C C46U | 0.02
123 | A14C A25U G36U G40A | 0.07
124 | C3A A6G C18U C37G | 0.03
125 | G1U C3A C10U A16G A24U G35A | 0.02
126 | G1A G2A U38A | 1.01
127 | G5U G30C C31A | 0.08
128 | U9G C10U U20A G21U C46U | 0.01
129 | C15G G19A G29C | 0.09
130 | A12G C13G G36U U38A | 0.06
131 | G5C G21U G35U | 0.06
132 | U9G U20G G30U | 0.03
133 | C10A A12U G29C A39G C46A | 0.02
134 | A14U C18A U32G G40U U43G | 0.01
135 | G7C C8A G40U | 0.15
136 | U9A C18A C31A | 0.1
137 | C10A G33U A41C | 0.03
138 | A12C G21C G40A | 0
139 | A6U C15A G30A G36U | 0.04
140 | A6G G35A A41U C42A | 0.02
141 | C13U U20A A26U G27A G33U C45U | 0.01
142 | G2A C8U G22U U28A G36U C37U | 0.02
143 | C18A C23U A26G G27U A41G | 0.14
144 | C10G G30A C31A | 0.04

Row | Variant | self-cleavage
145 | C8U A12U G44U | 0.1
146 | C13G A26U U28G C31G U43A | 0.01
147 | G7A A12G C42A C45A C46A | 0.59
148 | A11U A12G C13U | 0.01
149 | U20C A24U G27C | 0.18
150 | U9A G33U C42A | 0.15
151 | G1A C18A G35C C37G | 0.05
152 | G21U G22C C23A A26C C46A | 0.66
153 | G1C U20C G35A G36A C46A | 0.01
154 | C3A A25C G30U G33A G40U | 0.16
155 | G2A G5A C8G | 0.14
156 | G21U G27C U32G C45A | 0.16
157 | A4C U28G C46G | 0.32
158 | G19A U20A G21C G29A | 0.1
159 | G19A G21C C37U | 0.02
160 | G2U A11G C15A G22C G30U | 0.01
161 | G2U C10A U20G G27A | 0
162 | G1C A11G G30C A39C | 0
163 | G17U G27U G36U C45G | 0.01
164 | G1U C10A G19U | 0.02
165 | U20A G27C A41C | 0.04
166 | A25G C42A G44A | 0.04
167 | G1U A12C G30U C31A | 0
